# Laboratory results taken from the BET-seq Pho4 binding data (Le et al. 2018).
# The list shows a part of the results. These are noisy estimates, calculated here from bound and input reads.
# Biological target: T1, Pho4 (S. cerevisiae) (UniProt P07270)
# T1 sequence: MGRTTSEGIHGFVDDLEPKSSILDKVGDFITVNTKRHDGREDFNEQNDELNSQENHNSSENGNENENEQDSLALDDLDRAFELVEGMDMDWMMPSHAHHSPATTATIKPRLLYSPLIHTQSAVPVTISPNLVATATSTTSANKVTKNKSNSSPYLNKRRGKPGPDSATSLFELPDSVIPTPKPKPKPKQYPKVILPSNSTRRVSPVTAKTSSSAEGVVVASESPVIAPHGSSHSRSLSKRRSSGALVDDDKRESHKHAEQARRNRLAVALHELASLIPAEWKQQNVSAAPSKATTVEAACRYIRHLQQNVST
# Experiment: relative binding free energy (BET-seq); higher = weaker binding
# Details: reference: library average
row,Sequence,relative binding free energy
1,CAGAGCACGTGGGTTG,-0.24 kcal/mol
2,TTAGACACGTGATTAG,0.19 kcal/mol
3,TTGTTCACGTGTTTGT,0.25 kcal/mol
4,GAGATCACGTGGTAGT,0.16 kcal/mol
5,CTTGGCACGTGTTGGG,-0.13 kcal/mol
6,TTTCGCACGTGATATG,0.02 kcal/mol
7,TGTGTCACGTGATATA,0.15 kcal/mol
8,CTGTACACGTGAGTGG,0.33 kcal/mol
9,CTTTTCACGTGCGGAT,0.43 kcal/mol
10,ATAGGCACGTGTTAAA,-0.02 kcal/mol
11,CTGTACACGTGTGGCG,0.17 kcal/mol
12,CCGGTCACGTGCGGGT,0.07 kcal/mol
13,TGTTCCACGTGTATAT,-0.03 kcal/mol
14,ATTGGCACGTGTTTTA,-0.04 kcal/mol
15,AGACTCACGTGAGTGG,0.31 kcal/mol
16,ATTTACACGTGATGGC,0.31 kcal/mol
17,GAAGGCACGTGTGATT,-0.1 kcal/mol
18,ACCTTCACGTGGTTTG,0.3 kcal/mol
19,TATGGCACGTGAATCG,0.11 kcal/mol
20,TGTGCCACGTGTCAGT,-0.08 kcal/mol
21,GGTAGCACGTGGTTAT,-0.04 kcal/mol
22,GTCCGCACGTGAGTGT,0.17 kcal/mol
23,GGTGTCACGTGAAATT,0.38 kcal/mol

row,Sequence,relative binding free energy
1,GTGCGCACGTGAGTGA,0.22 kcal/mol
2,AACTGCACGTGGGGGA,-0.14 kcal/mol
3,GTTTTCACGTGGGTAA,0.3 kcal/mol
4,GATAACACGTGTAGGT,0.03 kcal/mol
5,GTGCACACGTGGCGGG,-0.12 kcal/mol
6,TAGGTCACGTGAGATA,0.28 kcal/mol
7,TTTGTCACGTGCTTCT,0.09 kcal/mol
8,GGGTTCACGTGTGCCG,0.16 kcal/mol
9,CGGCTCACGTGGGTAG,0.08 kcal/mol
10,GTATTCACGTGCTCGG,0.25 kcal/mol
11,AAGATCACGTGTGTAG,0.09 kcal/mol
12,GTATTCACGTGGGGTC,0.28 kcal/mol
13,TACGTCACGTGGTATT,-0.03 kcal/mol
14,GGAGACACGTGTGGGG,0.09 kcal/mol
15,GGGCGCACGTGGTAAT,-0.16 kcal/mol
16,TGCATCACGTGAGGTT,0.42 kcal/mol
17,TATCGCACGTGGACGG,0.1 kcal/mol
18,ACGCGCACGTGGGTGG,-0.39 kcal/mol
19,GTTGCCACGTGAAATT,0.35 kcal/mol
20,GTTCGCACGTGTTGTT,0.03 kcal/mol
21,GTACGCACGTGTTTGG,-0.05 kcal/mol
22,TATGACACGTGGCGGG,-0.11 kcal/mol
23,GATATCACGTGGTCGG,0.22 kcal/mol

row,Sequence,relative binding free energy
1,TAGGTCACGTGAAAGG,0.32 kcal/mol
2,GAGCGCACGTGTGGTG,-0.15 kcal/mol
3,TTCGTCACGTGTGCTT,0.2 kcal/mol
4,TGGTTCACGTGTGAGG,0.37 kcal/mol
5,CGTATCACGTGGTTTT,0.24 kcal/mol
6,AGGGACACGTGAGGTA,0.12 kcal/mol
7,GAATTCACGTGAGAGT,0.38 kcal/mol
8,AGGTCCACGTGGCGTG,-0.17 kcal/mol
9,TCTTGCACGTGGGTGC,-0.08 kcal/mol
10,TCGAGCACGTGTGTGA,-0.1 kcal/mol
11,TGTCGCACGTGTGTTT,0.06 kcal/mol
12,ATATGCACGTGTTGAA,-0.06 kcal/mol
13,GATTTCACGTGGCAGT,0.32 kcal/mol
14,CTGCTCACGTGTGATT,0.4 kcal/mol
15,TTAGGCACGTGATCTG,-0.03 kcal/mol
16,GGGTGCACGTGTGCGC,0.02 kcal/mol
17,GGGCGCACGTGGTCTT,-0.13 kcal/mol
18,CAGGACACGTGTGAGG,0.04 kcal/mol
19,TTGCACACGTGATAGT,0.17 kcal/mol
20,TCTGTCACGTGGTGGT,0.1 kcal/mol
21,ACGGTCACGTGATGGG,0.18 kcal/mol
22,CTGTTCACGTGAGTTA,0.38 kcal/mol
23,TAGATCACGTGGTTCA,0.11 kcal/mol

row,Sequence,relative binding free energy
1,AGAATCACGTGTTTTA,0.13 kcal/mol
2,TGGTACACGTGCGTAG,0.03 kcal/mol
3,GGGAACACGTGAAGTG,0.44 kcal/mol
4,ATTTTCACGTGGCTTT,0.3 kcal/mol
5,ATCATCACGTGGGGTT,-0.02 kcal/mol
6,CGTGCCACGTGGTGGG,-0.24 kcal/mol
7,TATTACACGTGTCTGA,0.19 kcal/mol
8,CTTTACACGTGTTGGC,0.29 kcal/mol
9,AGTGGCACGTGCTAGG,-0.03 kcal/mol
10,TAGTTCACGTGCGATG,0.44 kcal/mol
11,TTCGACACGTGTGAGT,0.01 kcal/mol
12,TTGGGCACGTGTTACT,-0.14 kcal/mol
13,GGATTCACGTGTGGTA,0.36 kcal/mol
14,TTGAACACGTGAGAGT,0.27 kcal/mol
15,ATCTTCACGTGGGATT,0.18 kcal/mol
16,TGAGACACGTGTAGCG,0.16 kcal/mol
17,CGTTACACGTGTGAGT,0.01 kcal/mol
18,ATAAACACGTGAAGGG,0.26 kcal/mol
19,GGGGGCACGTGGACCT,-0.22 kcal/mol
20,CTGTCCACGTGGTGGG,-0.11 kcal/mol
21,GATTGCACGTGCTTTG,0.04 kcal/mol
22,TAGGCCACGTGTTGGA,-0.09 kcal/mol
23,GTTTTCACGTGTGTCG,0.25 kcal/mol

row,Sequence,relative binding free energy
1,GTGTTCACGTGGCTGA,0.4 kcal/mol
2,TTTTGCACGTGGTCCC,0.13 kcal/mol
3,TCTAGCACGTGAGAGG,0.17 kcal/mol
4,ATATTCACGTGGTGCG,-0.11 kcal/mol
5,CGTTGCACGTGCTTGT,-0.03 kcal/mol
6,AGTGACACGTGGTACG,-0.02 kcal/mol
7,AGGTTCACGTGTTCGT,0.27 kcal/mol
8,AAGAGCACGTGTGTGA,0.02 kcal/mol
9,GAAGGCACGTGGCATG,-0.09 kcal/mol
10,TGTTTCACGTGTTGCA,0.19 kcal/mol
11,GAGTACACGTGTAGGG,0.26 kcal/mol
12,TGTTTCACGTGGTTGC,0.24 kcal/mol
13,CTGTTCACGTGTTTAG,0.26 kcal/mol
14,CGATGCACGTGGGCGG,-0.11 kcal/mol
15,CTGGGCACGTGGGACA,-0.15 kcal/mol
16,GGTGACACGTGTAGTC,0.17 kcal/mol
17,CAGTACACGTGTAGGT,0.19 kcal/mol
18,ATGTGCACGTGTCATT,-0.15 kcal/mol
19,TAAAGCACGTGTCGGG,-0.05 kcal/mol
20,TTGGACACGTGTAGGA,0.11 kcal/mol
21,ACTGGCACGTGGTTAT,-0.28 kcal/mol
22,TGGGTCACGTGGGAAG,0.04 kcal/mol
23,GTGGGCACGTGTAGGG,0.04 kcal/mol
